# Measured values reported in patent publication US10669314B2, “Polypeptide” (Affibody AB, priority 2014, dated 2020).
# Test system: not listed separately
# Experiment: CD variable temperature measurement, melting temperature
# Format: physicochemical
# Details: Example 2; His6-tagged, 0.5 mg/ml in PBS, 221 nm, 20 to 90° C.
# Protocol: A subset of the purified His6-tagged Z variants was diluted to 0.5 mg/ml in PBS. For each diluted Z variant, a CD spectrum at 250-195 nm was obtained at 20° C. In addition, a variable temperature measurement (VTM) was performed to determine the melting temperature (Tm). In the VTM, the absorbance was measured at 221 nm while the temperature was raised from 20 to 90° C., with a temperature slope of 5° C./min. The CD measurements were performed on a Jasco J-810 spectropolarimeter (Jasco Scandinavia AB) using a cell with an optical path-length of 1 mm.
# CD analysis was performed as described in Example 2 using Z variants purified under native conditions.
row,Molecule,Tm
1,"His6-Z06814: primary IL-6 binding Z variant SEQ ID NO:1512, MGSSHHHHHHLQ-[Z]-VD (protein) MGSSHHHHHHLQVDAKYAKEEQRAWREIHLLPNLTIEQMAAFIWKLLDDPSQSSELLSEAKKLNDSQAPKVD",49 °C
2,"His6-Z06829: primary IL-6 binding Z variant SEQ ID NO:1513, MGSSHHHHHHLQ-[Z]-VD (protein) MGSSHHHHHHLQVDAKYAKEEQRAWTEIHVLPNLTVSQMSAFISKLFDDPSQSSELLSEAKKLNDSQAPKVD",40 °C
3,"His6-Z06789: primary IL-6 binding Z variant SEQ ID NO:1505, MGSSHHHHHHLQ-[Z]-VD (protein) MGSSHHHHHHLQVDAKYAKEERQAWWEIHSLPNLTVDQMAAFIVKLMDDPSQSSELLSEAKKLNDSQAPKVD",52 °C
4,"His6-Z06799: primary IL-6 binding Z variant SEQ ID NO:1508, MGSSHHHHHHLQ-[Z]-VD (protein) MGSSHHHHHHLQVDAKYAKEEQRAWTEIHVLPNLTVQQMAAFITKLFDDPSQSSELLSEAKKLNDSQAPKVD",44 °C
5,"His6-Z06809: primary IL-6 binding Z variant SEQ ID NO:1511, MGSSHHHHHHLQ-[Z]-VD (protein) MGSSHHHHHHLQVDAKYAKEERDAWREIHALPNLTVDQLVAFITKLFDDPSQSSELLSEAKKLNDSQAPKVD",51 °C
6,"His6-Z06779: primary IL-6 binding Z variant SEQ ID NO:1504, MGSSHHHHHHLQ-[Z]-VD (protein) MGSSHHHHHHLQVDAKYAKEERSAWFEIHTLPNLTVQQIAAFIWKLYDDPSQSSELLSEAKKLNDSQAPKVD",51 °C
7,"His6-Z06792: primary IL-6 binding Z variant SEQ ID NO:1507, MGSSHHHHHHLQ-[Z]-VD (protein) MGSSHHHHHHLQVDAKYAKEERDAWHEIQILPNLTITQMAAFISKLFDDPSQSSELLSEAKKLNDSQAPKVD",48 °C

# Same assay, conditions: Example 7; His6-tagged matured Z variants purified under native conditions
row,Molecule,Tm
1,His6-Z14861: Z14861 (SEQ ID NO:4) as MGSSHHHHHHLQ-[Z]-VD (protein) MGSSHHHHHHLQVDAKYAKEERKAWIEIHNLPNLTIDQMAAFITKLFDDPSQSSELLSEAKKLNDSQAPKVD,48 °C
2,His6-Z14700: Z14700 (SEQ ID NO:8) as MGSSHHHHHHLQ-[Z]-VD (protein) MGSSHHHHHHLQVDAKYAKEERHAWFEIHKLPNLTVDQMAAFITKLFDDPSQSSELLSEAKKLNDSQAPKVD,53 °C
3,His6-Z11632: Z11632 (SEQ ID NO:7) as MGSSHHHHHHLQ-[Z]-VD (protein) MGSSHHHHHHLQVDAKYAKEEREAWFEIHTLPNLTVSQMAAFISKLFDDPSQSSELLSEAKKLNDSQAPKVD,51 °C
4,His6-Z15142: Z15142 (SEQ ID NO:14) as MGSSHHHHHHLQ-[Z]-VD (protein) MGSSHHHHHHLQVDAKYAKEERMAWYEIHSLPNLTVDQMAAFITKLFDDPSQSSELLSEAKKLNDSQAPKVD,53 °C
5,His6-Z15036: Z15036 (SEQ ID NO:11) as MGSSHHHHHHLQ-[Z]-VD (protein) MGSSHHHHHHLQVDAKYAKEEYEAWFEIHALPNLTVEQMAAFITKLFDDPSQSSELLSEAKKLNDSQAPKVD,59 °C
6,His6-Z15110: Z15110 (SEQ ID NO:12) as MGSSHHHHHHLQ-[Z]-VD (protein) MGSSHHHHHHLQVDAKYAKEERRAWTEIHSLPNLTIDQMAAFITKLFDDPSQSSELLSEAKKLNDSQAPKVD,50 °C
7,His6-Z14630: Z14630 (SEQ ID NO:6) as MGSSHHHHHHLQ-[Z]-VD (protein) MGSSHHHHHHLQVDAKYAKEEKFAWWEIHKLPNLTVDQVAAFITKLFDDPSQSSELLSEAKKLNDSQAPKVD,57 °C
8,His6-Z14712: Z14712 (SEQ ID NO:9) as MGSSHHHHHHLQ-[Z]-VD (protein) MGSSHHHHHHLQVDAKYAKEEYLAWNEIHKLPNLTVDQMAAFITKLFDDPSQSSELLSEAKKLNDSQAPKVD,55 °C
9,His6-Z15015: Z15015 (SEQ ID NO:2) as MGSSHHHHHHLQ-[Z]-VD (protein) MGSSHHHHHHLQVDAKYAKEERDAWWEIHALPNLTVEQMAAFITKLFDDPSQSSELLSEAKKLNDSQAPKVD,56 °C
10,His6-Z14862: Z14862 (SEQ ID NO:10) as MGSSHHHHHHLQ-[Z]-VD (protein) MGSSHHHHHHLQVDAKYAKEEAAAWREIHLLPNLTIDQMAAFITKLFDDPSQSSELLSEAKKLNDSQAPKVD,53 °C

# Molecular target: human IL-6 (Homo sapiens, UniProt P05231)
# Sequence (P05231 29-212): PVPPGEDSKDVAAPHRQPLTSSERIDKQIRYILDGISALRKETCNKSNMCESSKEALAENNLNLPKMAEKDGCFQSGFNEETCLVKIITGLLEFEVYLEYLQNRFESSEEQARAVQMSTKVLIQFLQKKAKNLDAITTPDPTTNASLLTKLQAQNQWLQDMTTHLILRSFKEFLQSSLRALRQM
# Experiment: ProteOn kinetic analysis (SPR)
# Format: binding
# Details: Z variant immobilized, hIL-6 analyte, 1:1 model; purified under denatured conditions
# Protocol: Kinetic constants (kon and koff) and affinities (KD) for human IL-6 were determined for 6 His6-tagged Z variants purified under denatured conditions. The IL-6 binding variants Z06814 (SEQ ID NO:1512), Z14861 (SEQ ID NO:4), Z014976 (SEQ ID NO:1), Z14984 (SEQ ID NO:5), Z15015 (SEQ ID NO:2), and Z15122 (SEQ ID NO:3) were diluted to 5 μg/ml in 10 mM NaAc buffer, pH 4.5, and immobilized separately on GLC chip (Bio-Rad, cat. no. 176-5011). The immobilization was performed using amine coupling chemistry according to the manufacturer's recommendations and PBST 0.05% was used as running buffer. PBST 0.05% was also used as running buffer in the kinetic experiment using a flow rate was 60 μl/min. The analyte hIL-6 was diluted in the PBST 0.05% running buffer to final concentrations of 50 nM, 12.5 nM, 3.1 nM, 0.78 nM, 0.19 nM and 0 nM and injected in triplicate for 3 min, followed by dissociation in running buffer for 90 min. After dissociation, the surfaces were regenerated with HCl supplemented with 0.05% Tween 20. Kinetic constants were calculated from the sensorgrams using a 1:1 model in Bio-Rad manager Software (Bio-Rad).
koff,kon,Molecule
8.8e-05 s⁻¹,430000 M⁻¹ s⁻¹,"His6-Z06814: primary IL-6 binding Z variant SEQ ID NO:1512, MGSSHHHHHHLQ-[Z]-VD (protein) MGSSHHHHHHLQVDAKYAKEEQRAWREIHLLPNLTIEQMAAFIWKLLDDPSQSSELLSEAKKLNDSQAPKVD"
7.4e-05 s⁻¹,300000 M⁻¹ s⁻¹,His6-Z14984: Z14984 (SEQ ID NO:5) as MGSSHHHHHHLQ-[Z]-VD (protein) MGSSHHHHHHLQVDAKYAKEEKQAWREIHLLPNLTIDQMAAFITKLFDDPSQSSELLSEAKKLNDSQAPKVD
6.3e-05 s⁻¹,360000 M⁻¹ s⁻¹,His6-Z14861: Z14861 (SEQ ID NO:4) as MGSSHHHHHHLQ-[Z]-VD (protein) MGSSHHHHHHLQVDAKYAKEERKAWIEIHNLPNLTIDQMAAFITKLFDDPSQSSELLSEAKKLNDSQAPKVD
2.7e-05 s⁻¹,310000 M⁻¹ s⁻¹,His6-Z14976: Z14976 (SEQ ID NO:1) as MGSSHHHHHHLQ-[Z]-VD (protein) MGSSHHHHHHLQVDAKYAKEERKAWYEIHLLPNLTVEQMAAFITKLFDDPSQSSELLSEAKKLNDSQAPKVD
3.9e-05 s⁻¹,310000 M⁻¹ s⁻¹,His6-Z15122: Z15122 (SEQ ID NO:3) as MGSSHHHHHHLQ-[Z]-VD (protein) MGSSHHHHHHLQVDAKYAKEERHAWYEIHLLPNLTIDQMAAFISKLFDDPSQSSELLSEAKKLNDSQAPKVD
7.2e-05 s⁻¹,430000 M⁻¹ s⁻¹,His6-Z15015: Z15015 (SEQ ID NO:2) as MGSSHHHHHHLQ-[Z]-VD (protein) MGSSHHHHHHLQVDAKYAKEERDAWWEIHALPNLTVEQMAAFITKLFDDPSQSSELLSEAKKLNDSQAPKVD
